Assay results as given in patent EP1568373A2, “Inducing cellular immune responses to HER2/neu using peptide and nucleic acid compositions” (priority 1999, dated 2001).
At least one peptide structure holds a part that was inferred or is arguable (an end, a ring closure or a residue).

Tested on: DR1, DR4w4, and DR7
Experiment: DR supertype primary panel cross-binding
Parameters: species or system human
Conditions: number of DR1, DR4w4, DR7 bound with an IC50 value of 1000 nM or less

CSCC[C@H](NC(=O)[C@H](CC(=O)O)NC(=O)[C@@H](NC(=O)CN)[C@@H](C)O)C(=O)N[C@@H](CCCCN)C(=O)N[C@@H](CC(C)C)C(=O)N[C@@H](CCCNC(=N)N)C(=O)N[C@@H](CC(C)C)C(=O)N1CCC[C@H]1C(=O)N[C@@H](C)C(=O)N[C@@H](CO)C(=O)N1CCC[C@H]1C(=O)N[C@@H](CCC(=O)O)C(=O)N[C@H](C(=O)N[C@@H](Cc1c[nH]cn1)C(=O)O)[C@@H](C)O [Her2/neu.28]
DR147 Cross-binding: 0

CC(C)C[C@H](NC(=O)[C@H](CO)NC(=O)[C@H](C)NC(=O)[C@H](CC(N)=O)NC(=O)[C@@H](NC(=O)[C@@H]1CCCN1C(=O)[C@H](CC(C)C)NC(=O)[C@H](Cc1ccc(O)cc1)NC(=O)[C@@H](NC(=O)[C@H](CC(C)C)NC(=O)[C@H](CCC(=O)O)NC(=O)[C@H](CC(C)C)NC(=O)[C@@H](N)CC(N)=O)[C@@H](C)O)[C@@H](C)O)C(=O)N[C@@H](CO)C(=O)N[C@@H](Cc1ccccc1)C(=O)O [Her2/neu.59]
DR147 Cross-binding: 3

CC(C)C[C@H](NC(=O)[C@H](CO)NC(=O)[C@H](C)NC(=O)[C@H](CC(N)=O)NC(=O)[C@@H](NC(=O)[C@@H]1CCCN1C(=O)[C@H](CC(C)C)NC(=O)[C@H](Cc1ccc(O)cc1)NC(=O)[C@@H](NC(=O)[C@@H](N)CC(C)C)[C@@H](C)O)[C@@H](C)O)C(=O)N[C@@H](CO)C(=O)N[C@@H](Cc1ccccc1)C(=O)N[C@@H](CC(C)C)C(=O)N[C@@H](CCC(N)=O)C(=O)N[C@@H](CC(=O)O)C(=O)O [Her2/neu.62]
DR147 Cross-binding: 3

CC(C)C[C@H](NC(=O)[C@H](C)NC(=O)[C@H](Cc1ccc(O)cc1)NC(=O)[C@H](CC(N)=O)NC(=O)[C@H](CC(=O)O)NC(=O)[C@H](CCC(=O)O)NC(=O)[C@H](Cc1ccccc1)NC(=O)[C@H](CC(C)C)NC(=O)[C@H](CCC(N)=O)NC(=O)[C@@H](N)[C@@H](C)O)C(=O)N[C@@H](C)C(=O)N[C@H](C(=O)N[C@@H](CC(C)C)C(=O)N[C@@H](CC(=O)O)C(=O)N[C@@H](CC(N)=O)C(=O)O)C(C)C [Her2/neu.105]
DR147 Cross-binding: 1

CC[C@H](C)[C@H](NC(=O)[C@H](CCCCN)NC(=O)[C@H](CCCCN)NC(=O)[C@@H](N)CS)C(=O)N[C@@H](Cc1ccccc1)C(=O)NCC(=O)N[C@@H](CO)C(=O)N[C@@H](CC(C)C)C(=O)N[C@@H](C)C(=O)N[C@@H](Cc1ccccc1)C(=O)N[C@@H](CC(C)C)C(=O)N1CCC[C@H]1C(=O)N[C@@H](CCC(=O)O)C(=O)N[C@@H](CO)C(=O)N[C@@H](Cc1ccccc1)C(=O)O [Her2/neu.367]
DR147 Cross-binding: 2

CC[C@H](C)[C@H](NC(=O)[C@H](CCCNC(=N)N)NC(=O)CNC(=O)[C@H](CCCNC(=N)N)NC(=O)[C@@H](NC(=O)[C@@H](NC(=O)[C@H](CCC(N)=O)NC(=O)[C@H](CC(C)C)NC(=O)[C@H](CC(N)=O)NC(=O)[C@H](CCC(N)=O)NC(=O)[C@H](Cc1ccccc1)NC(=O)[C@@H](NC(=O)[C@H](CO)NC(=O)[C@@H](N)CC(C)C)C(C)C)C(C)C)[C@@H](C)CC)C(=O)N[C@@H](CC(C)C)C(=O)O [Her2/neu.422]
DR147 Cross-binding: 3

CC[C@H](C)[C@H](NC(=O)[C@H](CC(C)C)NC(=O)[C@H](C)NC(=O)[C@H](CC(C)C)NC(=O)CNC(=O)[C@H](CO)NC(=O)CNC(=O)[C@H](CC(C)C)NC(=O)[C@H](CCC(=O)O)NC(=O)[C@H](CCCNC(=N)N)NC(=O)[C@@H](N)CC(C)C)C(=O)N[C@@H](Cc1c[nH]cn1)C(=O)N[C@@H](Cc1c[nH]cn1)C(=O)N[C@@H](CC(N)=O)C(=O)N[C@H](C(=O)O)[C@@H](C)O [Her2/neu.458]
DR147 Cross-binding: 1

CC[C@H](C)[C@H](NC(=O)[C@@H]1CCCN1C(=O)[C@H](CCSC)NC(=O)[C@H](Cc1ccc(O)cc1)NC(=O)[C@H](CO)NC(=O)[C@H](CC(C)C)NC(=O)[C@H](CC(=O)O)NC(=O)[C@@H]1CCCN1C(=O)[C@@H](N)CCCCN)C(=O)N[C@@H](Cc1c[nH]c2ccccc12)C(=O)N[C@@H](CCCCN)C(=O)N[C@@H](Cc1ccccc1)C(=O)N1CCC[C@H]1C(=O)N[C@@H](CC(=O)O)C(=O)N[C@@H](CCC(=O)O)C(=O)O [Her2/neu.605]
DR147 Cross-binding: 1

CC[C@H](C)[C@H](NC(=O)CNC(=O)[C@@H](NC(=O)[C@@H](NC(=O)[C@H](C)NC(=O)[C@H](CO)NC(=O)[C@@H](NC(=O)[C@@H](NC(=O)[C@H](CO)NC(=O)[C@@H](NC(=O)[C@H](CC(C)C)NC(=O)[C@@H]1CCCN1C(=O)[C@H](CO)NC(=O)[C@H](C)N)[C@@H](C)O)[C@@H](C)CC)[C@@H](C)CC)C(C)C)C(C)C)C(=O)N[C@@H](CC(C)C)C(=O)O [Her2/neu.648]
DR147 Cross-binding: 2

CC[C@H](C)[C@H](NC(=O)CNC(=O)[C@@H](NC(=O)[C@@H](NC(=O)[C@H](C)NC(=O)[C@H](CO)NC(=O)[C@@H](NC(=O)[C@@H](NC(=O)[C@H](CO)NC(=O)[C@@H](NC(=O)[C@@H](N)CC(C)C)[C@@H](C)O)[C@@H](C)CC)[C@@H](C)CC)C(C)C)C(C)C)C(=O)N[C@@H](CC(C)C)C(=O)N[C@@H](CC(C)C)C(=O)N[C@H](C(=O)N[C@H](C(=O)O)C(C)C)C(C)C [Her2/neu.651]
DR147 Cross-binding: 1

CC[C@H](C)[C@H](NC(=O)CNC(=O)[C@H](Cc1ccccc1)NC(=O)[C@@H](NC(=O)[C@@H](NC(=O)CNC(=O)[C@H](CC(C)C)NC(=O)[C@@H](N)C(C)C)C(C)C)C(C)C)C(=O)N[C@@H](CC(C)C)C(=O)N[C@H](C(=O)N[C@@H](CCCCN)C(=O)N[C@@H](CCCNC(=N)N)C(=O)N[C@@H](CCCNC(=N)N)C(=O)N[C@@H](CCC(N)=O)C(=O)N[C@@H](CCC(N)=O)C(=O)O)[C@@H](C)CC [Her2/neu.666]
DR147 Cross-binding: 2

CC(C)C[C@H](NC(=O)[C@H](CCC(=O)O)NC(=O)[C@@H](NC(=O)[C@@H](N)CCC(=O)O)[C@@H](C)O)C(=O)N[C@@H](CCCNC(=N)N)C(=O)N[C@@H](CCCCN)C(=O)N[C@H](C(=O)N[C@@H](CCCCN)C(=O)N[C@H](C(=O)N[C@@H](CC(C)C)C(=O)NCC(=O)N[C@@H](CO)C(=O)NCC(=O)N[C@@H](C)C(=O)N[C@@H](Cc1ccccc1)C(=O)O)C(C)C)C(C)C [Her2/neu.717]
DR147 Cross-binding: 2

CC[C@H](C)[C@H](NC(=O)[C@H](C)NC(=O)[C@@H](NC(=O)[C@@H]1CCCN1C(=O)[C@@H](NC(=O)[C@H](CCCCN)NC(=O)[C@@H](NC(=O)[C@H](CC(N)=O)NC(=O)[C@H](CCC(=O)O)NC(=O)CN)C(C)C)[C@@H](C)CC)C(C)C)C(=O)N[C@@H](CCCCN)C(=O)N[C@H](C(=O)N[C@@H](CC(C)C)C(=O)N[C@@H](CCCNC(=N)N)C(=O)N[C@@H](CCC(=O)O)C(=O)O)C(C)C [Her2/neu.743]
DR147 Cross-binding: 2

CC[C@H](C)[C@H](NC(=O)[C@H](CCC(=O)O)NC(=O)[C@@H](N)CCCCN)C(=O)N[C@@H](CC(C)C)C(=O)N[C@@H](CC(=O)O)C(=O)N[C@@H](CCC(=O)O)C(=O)N[C@@H](C)C(=O)N[C@@H](Cc1ccc(O)cc1)C(=O)N[C@H](C(=O)N[C@@H](CCSC)C(=O)N[C@@H](C)C(=O)NCC(=O)N[C@H](C(=O)NCC(=O)N[C@@H](CO)C(=O)O)C(C)C)C(C)C [Her2/neu.765]
DR147 Cross-binding: 0

CSCC[C@H](NC(=O)[C@@H](NC(=O)[C@H](Cc1ccc(O)cc1)NC(=O)[C@H](C)NC(=O)[C@H](CCC(=O)O)NC(=O)[C@@H](N)CC(=O)O)C(C)C)C(=O)N[C@@H](C)C(=O)NCC(=O)N[C@H](C(=O)NCC(=O)N[C@@H](CO)C(=O)N1CCC[C@H]1C(=O)N[C@@H](Cc1ccc(O)cc1)C(=O)N[C@H](C(=O)N[C@@H](CO)C(=O)O)C(C)C)C(C)C [Her2/neu.769]
DR147 Cross-binding: 3

CC[C@H](C)[C@H](NC(=O)CNC(=O)[C@H](CC(C)C)NC(=O)[C@H](CC(C)C)NC(=O)[C@H](CCCNC(=N)N)NC(=O)[C@@H](N)CO)C(=O)N[C@@H](CS)C(=O)N[C@@H](CC(C)C)C(=O)N[C@H](C(=O)N[C@@H](CO)C(=O)N[C@H](C(=O)N[C@H](C(=O)N[C@@H](CCC(N)=O)C(=O)N[C@@H](CC(C)C)C(=O)N[C@H](C(=O)O)C(C)C)C(C)C)[C@@H](C)O)[C@@H](C)O [Her2/neu.783]
DR147 Cross-binding: 3

CSCC[C@H](NC(=O)[C@H](CC(C)C)NC(=O)[C@H](CCC(N)=O)NC(=O)[C@@H](NC(=O)[C@@H](NC(=O)[C@H](CC(C)C)NC(=O)[C@H](CCC(N)=O)NC(=O)[C@@H](NC(=O)[C@@H](N)[C@@H](C)O)C(C)C)C(C)C)[C@@H](C)O)C(=O)N1CCC[C@H]1C(=O)N[C@@H](Cc1ccc(O)cc1)C(=O)NCC(=O)N[C@@H](CS)C(=O)N[C@@H](CC(C)C)C(=O)N[C@@H](CC(C)C)C(=O)O [Her2/neu.793]
DR147 Cross-binding: 2

CC[C@H](C)[C@H](NC(=O)[C@H](CCC(N)=O)NC(=O)[C@H](CCSC)NC(=O)[C@H](CS)NC(=O)[C@H](Cc1c[nH]c2ccccc12)NC(=O)[C@H](CC(N)=O)NC(=O)[C@H](CC(C)C)NC(=O)[C@@H](N)CC(C)C)C(=O)N[C@@H](C)C(=O)N[C@@H](CCCCN)C(=O)NCC(=O)N[C@@H](CCSC)C(=O)N[C@@H](CO)C(=O)N[C@@H](Cc1ccc(O)cc1)C(=O)N[C@@H](CC(C)C)C(=O)O [Her2/neu.822]
DR147 Cross-binding: 2

CC[C@H](C)[C@H](NC(=O)[C@H](CO)NC(=O)[C@H](CCC(=O)O)NC(=O)[C@H](CC(C)C)NC(=O)[C@H](C)NC(=O)[C@H](CCSC)NC(=O)[C@H](Cc1c[nH]c2ccccc12)NC(=O)[C@H](CCCCN)NC(=O)[C@@H](NC(=O)[C@@H]1CCCN1C(=O)[C@@H](NC(=O)[C@@H](N)CCCCN)C(C)C)[C@@H](C)CC)C(=O)N[C@@H](CC(C)C)C(=O)N[C@@H](CCCNC(=N)N)C(=O)N[C@@H](CCCNC(=N)N)C(=O)O [Her2/neu.883]
DR147 Cross-binding: 2

CC[C@H](C)[C@H](NC(=O)[C@@H]1CCCN1)C(=O)N[C@@H](CCCCN)C(=O)N[C@@H](Cc1c[nH]c2ccccc12)C(=O)N[C@@H](CCSC)C(=O)N[C@@H](C)C(=O)N[C@@H](CC(C)C)C(=O)N[C@@H](CCC(=O)O)C(=O)N[C@@H](CO)C(=O)N[C@H](C(=O)N[C@@H](CC(C)C)C(=O)N[C@@H](CCCNC(=N)N)C(=O)N[C@@H](CCCNC(=N)N)C(=O)N[C@@H](CCCNC(=N)N)C(=O)N[C@@H](Cc1ccccc1)C(=O)O)[C@@H](C)CC [Her2/neu.885]
DR147 Cross-binding: 1

CSCC[C@H](NC(=O)[C@H](CC(C)C)NC(=O)[C@H](CCC(=O)O)NC(=O)[C@H](Cc1c[nH]c2ccccc12)NC(=O)[C@@H](NC(=O)[C@@H](NC(=O)[C@@H](NC(=O)CN)C(C)C)[C@@H](C)O)C(C)C)C(=O)N[C@H](C(=O)N[C@@H](Cc1ccccc1)C(=O)NCC(=O)N[C@@H](C)C(=O)N[C@@H](CCCCN)C(=O)N1CCC[C@H]1C(=O)N[C@@H](Cc1ccc(O)cc1)C(=O)O)[C@@H](C)O [Her2/neu.909]
DR147 Cross-binding: 1
